# From PubChem BioAssay AID1745845 (National Center for Advancing Translational Sciences (NCATS), 2022)
# Among all 360,000 compounds or so, about 2,600 (0.72%) were called active. This list was built around the results that the source calls inconclusive (neither active nor inactive); the mix of calls is not that of the screen. The call rests on the fitted dose curve; in most records, active means well fitted inhibition curve with a large enough effect; inconclusive means small, poorly fitted or top-dose-only effect; inactive means no such curve, though single readings can be large or run the other way. A potency beside an inconclusive call is a rough fit, not a confirmed value.
# Experiment: Primary qHTS for Inhibitors of ATXN expression; further: nearly all actives have a fitted effect of over 55% in size
# Details: HEK-293 ATXN2-luciferase reporter, luminescence, 24 h; activity change, negative = inhibition: at 57 µM (top of the series)
# Procedure, shortened: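 ATXN2-luciferase reporter cells (luciferase flanked by upstream and downstream ATXN2 gene portions) were treated 24 h at 37 °C with compounds at up to 57 uM. SteadyGlo luminescence gave expression; GF-AFC fluorescence gave viability.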
# On the % scale 0 is the no-effect control and ±100 the full control effect; potency means the concentration at half of the fitted maximal effect; tags describe the fitted curve by direction and shape.
SMILES,Potency,"activity change, negative = inhibition"
c1ccc(COc2cccc(-c3cc4nc(NCCCn5ccnc5)ccn4n3)c2)cc1,"inconclusive: 39.8 µM [inhibitor, single point]",–
CN(C(=O)c1cccc(NC(=O)Cc2ccc(NC(=O)C3CCN(C(=O)C4CCCCC4)CC3)cc2)c1)C1CC1,–,inactive: 5.19%
Cc1ccc(Oc2ccccc2NC(=O)CN2C(=O)NC3(CCCC3)C2=O)cc1,–,inactive: -15.7%
FC(F)(F)c1cccc(NC(=S)NC(c2ccccc2)c2ccccc2)c1,"inconclusive: 5.32 µM [inhibitor, partial curve, poor fit]",–
CCC(=O)OC1(C)C(=O)C=C2C=C(C3CC3)OC=C2C1=O (configuration not stated),–,inactive: -4.59%
CC1(Cc2ccc(OC(F)(F)F)cc2)C(=O)Nc2c(Cl)ccc(Cl)c21 (configuration not stated),"inconclusive: 28.2 µM [inhibitor, single point]",–
Clc1ccc(Cc2nn3c(Cn4nnc5ccccc54)nnc3s2)cc1,–,inactive: -1.31%
COc1ccc(SC[C@H](Cc2ccccc2)N2CC[C@@H](C)CCC2=O)cc1,"inconclusive: 22.4 µM [inhibitor, partial curve, poor fit]",–
Nc1cccc(-c2nc3ccc(N)cc3s2)c1,"inconclusive: 39.8 µM [inhibitor, single point]",–
Cc1ccc(-n2c(-c3ccccc3)c[n+]3c2CCc2ccccc2-3)c(C)c1,"inconclusive: 2.99 µM [inhibitor, full curve, poor fit]",–
CCc1ccccc1Nc1nn2c(=O)c3ccc(C(=O)NCc4ccccc4Cl)cc3nc2s1,"inconclusive: 1.41 µM [inhibitor, full curve, poor fit]",–
COC(=O)c1ccc(Oc2ccc(S(=O)(=O)N3CCCCC3)cc2N)cc1,"inconclusive: 7.52 µM [inhibitor, partial curve, poor fit]",–
O=C(COc1ccc(C(=O)c2ccccc2)cc1)Nc1cccnc1,"inconclusive: 8.91 µM [inhibitor, full curve]",–
N#C/C(=C\c1ccc(-c2ccc(C(=O)O)cc2)o1)c1nc2ccccc2[nH]1,inactive,–
Clc1ccc(OCCCNCc2ccccc2)c(Br)c1,"inconclusive: 31.6 µM [inhibitor, single point]",–
Cc1ccc(OCC(=O)Nc2ccc3nc(SCC(=O)N(C)c4ccccc4)sc3c2)cc1,"inconclusive: 12.6 µM [inhibitor, partial curve, poor fit]",–
COc1ccccc1/C=C1\SC(=S)N(CCC(=O)NC2=NCCS2)C1=O,"inconclusive: 37.7 µM [inhibitor, single point]",–
COc1ccc(N2CCN(C(=O)c3nn(-c4ccc(C)cc4)c(=O)n(C)c3=O)CC2)cc1,–,inactive: -9.12%
CCOc1ccc(S(=O)(=O)N2CCC(C(=O)N3CCOCC3)CC2)cc1C,–,inactive: -8.29%
NC(=O)C1(N2CCCCC2)CCN(CC(=O)Nc2cc(Cl)ccc2Cl)CC1,–,inactive: -10.1%
O=C(NCc1cccc(Cl)c1)C1Cc2c(-c3ccc(Cl)cc3)ccnc2O1 (configuration not stated),–,inactive: 8.54%

SMILES,Potency,"activity change, negative = inhibition"
CCCCCCCCN1C(=O)[C@H](CC(=O)N2CCOCC2)C[C@@]2(C(=O)OCC)CCCC=C12,"inconclusive: 39.8 µM [inhibitor, single point]",–
N#CC1C=Cc2c(ccc3ccccc23)N1C(=O)c1ccccc1 (configuration not stated),"inconclusive: 2.24 µM [inhibitor, full curve]",–
CCCCC(=O)N(C)c1c(CC)nc2c(OCCC3CCCCC3)cccn12,"inconclusive: 35.5 µM [inhibitor, single point]",–
Cc1ccc(S(=O)(=O)Nc2c(C)cc([N+](=O)[O-])cc2C)cc1,–,inactive: -15%
CC1=C(C(=O)OCc2ccccc2)C(/C=C/c2ccccc2)NC(=S)N1 (configuration not stated),"inconclusive: 39.8 µM [inhibitor, partial curve, poor fit]",–
COc1ccc(-c2nnn(CC(=O)N(CC3CCCO3)C(C(=O)NC(C)(C)C)c3ccco3)n2)cc1OC (configuration not stated),–,inconclusive: -39.5% [inhibitor]
Cc1cccc(CN2CCN(C(=O)c3cccc4ccccc34)CC2)c1,–,inactive: -10.5%
COC(=O)CSc1nc(N)c2c3c(sc2n1)C(c1ccccc1)SC(c1ccccc1)C3 (configuration not stated),"inconclusive: 25.1 µM [inhibitor, single point]",–
O=C(COC(=O)c1cc(Br)c(Br)s1)NCCC1=CCCCC1,"inconclusive: 28.2 µM [inhibitor, partial curve]",–
CC[C@]12c3[nH]c4cc(-c5ccco5)ccc4c3CCN1C(=O)[C@@H](CC(=O)NCC13CC4CC(CC(C4)C1)C3)C[C@@H]2C(=O)N1CCN(C(=O)c2ccco2)CC1,"inconclusive: 39.8 µM [inhibitor, single point]",–
O=C(CN1C(=O)C2C3C=CC(C3)C2C1=O)OCC(=O)c1ccc(Cl)c([N+](=O)[O-])c1 (configuration not stated),–,inactive: -11.4%
O=[N+]([O-])c1ccc(-c2nc(Nc3ccc(O)cc3)c3ccccc3n2)cc1,"inconclusive: 25.1 µM [inhibitor, partial curve, poor fit]",–
CCn1nc([N+](=O)[O-])c2c(-c3nc4ccccc4o3)c(N)n(CCCOC)c2c1=O,"inconclusive: 37.7 µM [inhibitor, single point]",–
Cc1ccc(O)c(-c2n[nH]c3c2C(c2ccccc2F)N(Cc2ccco2)C3=O)c1 (configuration not stated),"inconclusive: 39.8 µM [inhibitor, single point]",–
COc1ccccc1N1CCN(S(=O)(=O)c2ccc3c(c2)NC(=O)C(C)S3)CC1 (configuration not stated),–,inactive: -23.7%
CC(CCc1ccc(O)cc1)NCCC(c1ccccc1)c1ccccc1 (configuration not stated),"inconclusive: 31.6 µM [inhibitor, single point]",–
O=C(NC(CO)C(O)c1ccc([N+](=O)[O-])cc1)C(Cl)Cl (configuration not stated),–,inactive: -14.8%
CCc1cc2c(-c3ccccc3)cc(=O)oc2cc1OC(C)C(C)=O (configuration not stated),"inconclusive: 25.1 µM [inhibitor, single point]",–
CCOc1ccc(NC(=O)Cn2c(=O)oc3cc(S(=O)(=O)N4CCC(C)CC4)ccc32)cc1,"inconclusive: 28.2 µM [inhibitor, single point]",–
O=[N+]([O-])c1ccc(C=Nc2ccc(Cl)cc2Cl)s1,active: 12.6 µM,–
CC(C)(C)NCC(O)(c1ccc(Cl)cc1)c1ccc(Cl)cc1,–,inconclusive: -59.1% [inhibitor]
